# From PubChem BioAssay AID686971 (National Center for Advancing Translational Sciences (NCATS), 2013)
# Among all 360,000 compounds or so, about 7,500 (2.1%) were called active. Inconclusive means that the source gave no clear call. Such entries were picked first, then a sample of the others. Calls come from the whole dose curve; as a rule, active = well fitted cell-killing curve with a large enough effect; inconclusive = small, poorly fitted or top-dose-only effect, or effect the other way, or another doubt; inactive = no such curve, though single readings can be large or run the other way. Potencies of inconclusive entries are left out as doubtful fits.
# Test: qHTS for induction of synthetic lethality in tumor cells producing 2HG: qHTS for the HT-1080-IDH1KD cell line;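 for activity, negative = toxicity: 0% = DMSO wells and -100% = cell-free medium wells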
# Details: HT-1080 IDH1 knockdown viability, ATP luminescence, 48 h; activity, negative = toxicity: at 46.1 µM (top of the series) unless noted
# Procedure, shortened: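 Cytotoxicity counter-line: IDH1KD HT-1080, 48 h, CellTiter-Glo. Curves classed by r2, magnitude and activity.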
# Potency is the fitted concentration of half-maximal effect; tags give direction and shape of the fitted curve.
SMILES,"activity, negative = toxicity",Potency
O=C(CNS(=O)(=O)c1ccc(Br)cc1)N1CCN(c2ccc(F)cc2)CC1,inactive: -23.5%,–
O=C(N/N=C1\CCc2ccccc21)c1ccccc1O,–,"inconclusive [cytotoxic, single point]"
Cc1ccc(-c2csc(Nc3ccc(C(=O)O)cc3)[n+]2Cc2ccccc2)cc1,inactive: -4.37%,–
CC(C)NC(=S)Nc1ccc2cn[nH]c2c1,inactive: 3.64%,–
CCn1c(=N)n(CC(=O)c2ccc(Br)s2)c2ccccc21,–,"inconclusive [cytotoxic, single point]"
Cc1[nH]n(-c2ccccc2)c(=O)c1C(=O)c1ccccc1,–,"inconclusive [cytotoxic, partial curve]"
Cc1ccc(CNC(=O)C2CC(c3cc(C(F)(F)F)cc(C(F)(F)F)c3)=NO2)o1 (stereo not drawn),–,active: 23.1 µM
Cc1ccccc1Cn1c(=O)n(Cc2ccco2)c(=O)c2ccccc21,inactive: 0.416% [at 9.24 µM],–
CC1(C)C2CC=C(/C=N/NC(=S)NCCc3ccccc3)C1C2 (stereo not drawn),–,"inconclusive [cytotoxic, single point]"
COc1cc(C(=O)ONC(=O)c2ccc(OC(F)F)cc2)cc(OC)c1OC,inconclusive: -34.9% [cytotoxic],–
CN(C)CCCOc1nn(Cc2ccccc2)c2ccccc12,–,active: 18.4 µM
C=CCNC(=O)c1c(N)n(-c2cccc(S(N)(=O)=O)c2)c2nc3ccccc3nc12,–,"inconclusive [cytotoxic, single point]"
CCOC(=O)C(NC(=O)c1cccc(Cl)c1)(OCc1ccc(F)cc1)C(F)(F)F (stereo not drawn),–,"inconclusive [cytotoxic, partial curve]"
CC1CCCCN1CCNC(=O)c1ccc2c(c1)N(Cc1cccc(Cl)c1)C(=O)c1ccccc1S2(=O)=O (stereo not drawn),–,"inconclusive [cytotoxic, partial curve]"
COc1ccc(-c2cc(NC=O)c3ncc(-c4ccc(OC)c(OC)c4)n3c2)cc1OC,–,"inconclusive [cytotoxic, partial curve]"
Cc1ccccc1NC(=S)N/N=C/c1ccc(O)cc1O,–,active: 10.3 µM
COc1ccc(C(=O)/C=C/Nc2c(C)n(C)n(-c3ccccc3)c2=O)cc1OC,–,"inconclusive [cytotoxic, single point]"
CCOC(=O)c1[nH]c2ccc(OC)cc2c1NC(=O)CN1CCc2ccccc2C1,–,"inconclusive [cytotoxic, single point]"
OCC1(Cc2cccc(Cl)c2)CCCN(Cc2ccc(F)c(F)c2)C1 (stereo not drawn),–,active: 25.9 µM
COc1cccc(NC(=O)c2nnn(CC(=O)Nc3cc(C)cc(C)c3)c2N)c1,–,"inconclusive [cytotoxic, single point]"
CC(C)NC(=O)C1(C)CN(S(C)(=O)=O)CC(=O)N1CCCN1CCOCC1 (stereo not drawn),–,"inconclusive [rising, single point]"
COc1ccc(N=c2cc(-c3ccc(O)cc3)oc3ccccc23)cc1,–,active: 16.4 µM
Cc1ccc(NC(=O)c2nc(S(=O)(=O)Cc3ccccc3C)ncc2Cl)cc1C,–,active: 16.4 µM
Cc1ccc2c(c1)Oc1ccccc1C=C2C(=O)O,inactive: 19.4%,–
OC(COc1ccc(Cl)cc1)CN1C2=NCCCN2c2ccccc21 (stereo not drawn),–,"inconclusive [cytotoxic, single point]"

SMILES,"activity, negative = toxicity",Potency
C[C@H](O)[C@@H]1CN2CCc3c([nH]c4ccccc34)[C@@H]2C[C@@H]1N(C)C(=S)NCCc1ccccc1,–,"inconclusive [cytotoxic, single point]"
CN(CC(=O)Nc1cccc(F)c1)C(=O)c1cccc(S(=O)(=O)N2CCN(c3ccc(F)cc3)CC2)c1,–,"inconclusive [cytotoxic, single point]"
O=C(O)c1ccc(/C=N/Nc2cccc(C(F)(F)F)c2)cc1,–,"inconclusive [cytotoxic, partial curve]"
CC(C)NC(=O)C1(C)CN(S(C)(=O)=O)CC(=O)N1Cc1cccc(F)c1 (stereo not drawn),inactive: 16%,–
COc1ccc(Nc2nc3cc(-c4sccc4C)sc3c(=O)n2C)cc1OC,–,active: 1.3 µM
COC(=O)c1c(NS(=O)(=O)c2ccc3ccccc3c2)sc2c1CCCC2,–,"inconclusive [cytotoxic, single point]"
Cc1ccc2c(C)c(C(=O)Nc3ccc(S(=O)(=O)Nc4onc(C)c4C)cc3)oc2c1,–,"inconclusive [cytotoxic, single point]"
Cc1ccc(OCc2nnc(SCC(=O)N3CCc4ccccc43)n2C)cc1,inactive: 16%,–
COc1c(Cl)cc(-c2noc(C)c2C(=O)NCCc2ccc(C)cc2)cc1Cl,inactive: 1.77%,–
CCOc1ccccc1N1CCN(C(=O)c2cc(-c3cc(OC)ccc3OC)nc3ccccc23)CC1,–,"inconclusive [cytotoxic, single point]"
O=S1(=O)CC(N2CCN(Cc3ccccc3F)CC2)CN1Cc1cn(Cc2ccc(F)cc2)nn1 (stereo not drawn),–,"inconclusive [cytotoxic, single point]"
Cc1ccc(Cl)c(NC(=O)COC(=O)c2ccccc2C(=O)c2ccc(Cl)c([N+](=O)[O-])c2)c1Cl,–,"inconclusive [cytotoxic, single point]"
Cc1cc(Cl)n2c(nc3cc(F)c(F)cc32)c1C#N,–,active: 5.17 µM
COc1ccc(CC(N)c2csc(Nc3ccccn3)n2)cc1 (stereo not drawn),–,"inconclusive [cytotoxic, single point]"
COc1ccc(OCC(=O)Nc2nnc(C)s2)cc1,inactive: 12.9%,–
CSCC[C@H](NC(=O)COc1ccc(Cl)cc1)c1nc2ccccc2[nH]1,inconclusive: -9.57% [cytotoxic],–
O=c1[nH]c(C2CCCN(S(=O)(=O)c3ccc(F)cc3)C2)nc2c1nnn2Cc1ccc(F)cc1 (stereo not drawn),inactive: 1.25%,–
COc1ccc(-c2cc3nc(C)cc(N)n3n2)cc1,–,active: 16.4 µM
COc1ccc(-c2cccc(NS(=O)(=O)c3ccc([N+](=O)[O-])cc3)c2)nn1,inactive: 5.84%,–
CCOc1cc(CNc2ccccc2)cc(Br)c1OCC(=O)NC(C)(C)C,–,"inconclusive [cytotoxic, single point]"
Cc1ccc(Nc2cc(C)nn2-c2nc(C)cc(C)n2)cc1,–,"inconclusive [cytotoxic, single point]"
C=CCOc1c(OC)cc(/C=N/Nc2cccc(C(=O)O)c2)c(Br)c1Br,–,"inconclusive [cytotoxic, partial curve]"
OC(c1ccc(Cl)cc1)c1ncc(-c2ccc(Cl)cc2)[nH]1 (stereo not drawn),–,"inconclusive [cytotoxic, single point]"
Cc1ccc2cc(NC(=O)C3(C)CCN3CC(C)C)ccc2n1 (stereo not drawn),–,"inconclusive [rising, partial curve]"
O=C(C(=O)N1CCCCC1)c1c(-c2ccccc2)[nH]c2ccccc12,inactive: 25.9%,–

SMILES,"activity, negative = toxicity",Potency
NC(=S)N/N=C/c1cn(-c2ccccc2)nc1-c1cccnc1,–,"inconclusive [cytotoxic, partial curve]"
CCn1c2ccccc2c2cc(/C=N/NC(=O)c3ccccc3C)ccc21,–,active: 20.6 µM
CC(C)CCN(C(=O)Nc1ccccc1)C(C)c1cccs1 (stereo not drawn),–,"inconclusive [cytotoxic, single point]"
Cc1cc(NC(=O)CCC(=O)N(c2ccccc2)C(C(=O)NC2CCCC2)c2cccs2)no1 (stereo not drawn),inactive: -1.39%,–
O=c1nc(Nc2ccc(OCc3ccccc3)cc2)sc2ncccc12,inconclusive: -43.7% [cytotoxic],–
COc1ccc(CC(N)c2csc(NC(=O)Nc3cccc(C(F)(F)F)c3)n2)cc1 (stereo not drawn),–,active: 16.4 µM
COc1ccccc1NC(=S)Nc1cccc2cnccc12,–,"inconclusive [cytotoxic, single point]"
COc1ccc(CNC(=O)c2ccc3c(=O)n4c(nc3c2)CCCCC4)cc1OC,–,"inconclusive [cytotoxic, single point]"
CCNc1nc2c(c(=O)n(Cc3ccccc3)c(=O)n2C)n1Cc1ccccc1,–,"inconclusive [cytotoxic, partial curve]"
CCN(CC)c1cc(NCCO)c([N+](=O)[O-])c2nonc12,inactive: -9.7%,–
CC(=O)Nc1ccc(SCC(=O)N(C)CC(=O)Nc2ccccc2Cl)cc1,inactive: 9.39%,–
Cc1nc(C(=O)NNC(=O)c2ccc(Cl)cc2)cs1,–,"inconclusive [cytotoxic, single point]"
O=C(/C(=C/O)N=Nc1ccccc1)c1cccs1,–,"inconclusive [cytotoxic, single point]"
CCC1(c2ccccc2)NC(=O)N(CC(=O)Nc2ccc(S(=O)(=O)Nc3ncccn3)cc2)C1=O (stereo not drawn),inactive: 1.54%,–
O=C(c1ccc2oc(CCc3ccccc3)nc2c1)N1CC[C@H](O)C1,inactive: -0.0322%,–
CCn1c(-c2ccccc2O)n[nH]c1=S,–,"inconclusive [cytotoxic, single point]"
O=C(Nc1ccnc(-c2cccnc2)n1)c1ccc(Cl)cc1,–,"inconclusive [rising, partial curve]"
COc1ccc(C(O)c2nc(-c3ccc(F)c(Cl)c3)cs2)cc1 (stereo not drawn),–,"inconclusive [cytotoxic, single point]"
CN1CCCC(CN2c3ccccc3Sc3ccccc32)C1 (stereo not drawn),–,active: 20.6 µM
Cc1ccn2c(CC(C)(C)C)c(-c3ccc(F)cc3)nc2c1,inactive: 6.29%,–
COc1ccc2occ(C(=O)c3ccccc3)c2c1,inactive: 0.0297%,–
COc1ccc(OC)c(C2=NOC(C(=O)NCc3ccco3)C2)c1 (stereo not drawn),–,"inconclusive [cytotoxic, single point]"
Cc1cc2cc(C(c3nnnn3CC3CCCO3)N3CCCc4ccccc43)c(=O)[nH]c2cc1C (stereo not drawn),–,active: 11.2 µM
